This sample is rich in variants without activity.
B1: TPR 5TU (parent)
chain: GGAUCUUCUCGAUCUAACAAAAAAGACAAAUCUGCCACAAAGCUUGAGAGCAUCUUCGGAUGCAGAGGCGGCAGCCUUCGGUGGCGCGAUAGCGCCAACGUUCUCAACUAUGACACGCAAAACGCGUGCUCCGUUGAAUGGAGUUUAUCAUG

Variants of: B1
Experiment: polymerase ribozyme fitness, log enrichment relative to wild type (log ratio); higher = more active; in vitro selection for triplet polymerase activity
Method in brief: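 Mutant libraries were PCR-built and transcribed for each subunit of a heterodimeric triplet polymerase ribozyme and selected for one round in triplicate at −7 °C, frozen, before gel excision of extended constructs and streptavidin-bead capture. Input and output libraries were Illumina-sequenced, keeping genotypes with ≥10 input reads and ≥1 read per output. Fitness is a logarithmic ratio of genotype to wild-type enrichment, in base 2, using inverse-variance-weighted replicate averages.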

With A23C G34U A37U U55A U61A C76G C93G G112U C149G as the variant, how does the “polymerase ribozyme fitness (log ratio)” value read?
The value was no more than -4.2.

With A22U G86A C93G C99A A138C as the variant, how does the “polymerase ribozyme fitness (log ratio)” value read?
Its value is no more than -4.2.

With A23U U31A C87A G92C as the variant, how does the “polymerase ribozyme fitness (log ratio)” value read?
Its value is no more than -4.2.

With A23U A24U C32G A89G A115G as the variant, how does the “polymerase ribozyme fitness (log ratio)” value read?
Its value is no more than -4.2.

With A23U U44A U45A A66U C95U A120G as the variant, how does the “polymerase ribozyme fitness (log ratio)” value read?
Its value is no more than -4.2.

Which “polymerase ribozyme fitness (log ratio)” value does the source give for A23C A52G C96A U144G here?
The value was no more than -4.2.

For A23G A39G G42C U101G, which “polymerase ribozyme fitness (log ratio)” value is on record?
The value was no more than -4.2.

For A23U G42A C43G A60C G68A G74C C105U G112U A113U C118U U139G, which “polymerase ribozyme fitness (log ratio)” value is on record?
The value was no more than -4.2.

Which “polymerase ribozyme fitness (log ratio)” value does the source give for A23G G50C A64U C93A A120U here?
Its value is no more than -4.2.

Which “polymerase ribozyme fitness (log ratio)” value does the source give for A23C C87G A91G C99A C103G here?
The value was no more than -4.2.

With A22C A49C A115G as the variant, how does the “polymerase ribozyme fitness (log ratio)” value read?
Its value is no more than -4.2.

Which “polymerase ribozyme fitness (log ratio)” value does the source give for A23G A29G G46U G68U C85A here?
The value was no more than -4.2.

Which “polymerase ribozyme fitness (log ratio)” value does the source give for A23U A39C C96U G112A A150G here?
The value was no more than -4.2.

Which “polymerase ribozyme fitness (log ratio)” value does the source give for A22U U55A C96U here?
Its value is -0.172.

For A23C C38U G67C G140A, which “polymerase ribozyme fitness (log ratio)” value is on record?
Its value is no more than -4.2.

With A22U A49U U82A G83U G136C as the variant, how does the “polymerase ribozyme fitness (log ratio)” value read?
Its value is no more than -4.2.

Which “polymerase ribozyme fitness (log ratio)” value does the source give for A22U C76G C87G U101G G140C here?
The value was -4.19.

With A23U G50A A60C A66U C85U C95G A122C as the variant, how does the “polymerase ribozyme fitness (log ratio)” value read?
The value was no more than -4.2.

For A22C A52U G58C U61G G65U G80U C96U, which “polymerase ribozyme fitness (log ratio)” value is on record?
The value was no more than -4.2.

With A22G C54U G88U U90G A137U U144A as the variant, how does the “polymerase ribozyme fitness (log ratio)” value read?
The value was no more than -4.2.

For A22U C114A, which “polymerase ribozyme fitness (log ratio)” value is on record?
Its value is -3.29.

For A23U G50A A52U G80C G92U C95U A98G C103G, which “polymerase ribozyme fitness (log ratio)” value is on record?
Its value is no more than -4.2.

Which “polymerase ribozyme fitness (log ratio)” value does the source give for A23C A29G C85A A120G here?
The value was no more than -4.2.

With A22U U56A A64G A122U C123G A150G as the variant, how does the “polymerase ribozyme fitness (log ratio)” value read?
The value was no more than -4.2.

For A23U A29C C36U G81A A91G A107U, which “polymerase ribozyme fitness (log ratio)” value is on record?
Its value is no more than -4.2.

Which “polymerase ribozyme fitness (log ratio)” value does the source give for A22C C35G U44A A60G C76A C95U here?
Its value is no more than -4.2.

Which “polymerase ribozyme fitness (log ratio)” value does the source give for A22U C103G A110C here?
Its value is no more than -4.2.

For A22U U45A G68A A122G G140U U146A, which “polymerase ribozyme fitness (log ratio)” value is on record?
Its value is no more than -4.2.

For A22G G68C A73U A89U G94A, which “polymerase ribozyme fitness (log ratio)” value is on record?
Its value is no more than -4.2.

With A23U A24G U53A C76G C93U as the variant, how does the “polymerase ribozyme fitness (log ratio)” value read?
The value was no more than -4.2.

Which “polymerase ribozyme fitness (log ratio)” value does the source give for A23U A24C A52G C87A C99U here?
The value was no more than -4.2.

For A22C A52C C69G C95U A98U C118G C125A C132G G133A U148G, which “polymerase ribozyme fitness (log ratio)” value is on record?
Its value is no more than -4.2.

With A22C G25U A28U A47C G58C C93U G94C as the variant, how does the “polymerase ribozyme fitness (log ratio)” value read?
Its value is no more than -4.2.

For A23G A40G G50U C76A G84C, which “polymerase ribozyme fitness (log ratio)” value is on record?
Its value is no more than -4.2.

For A23G G25C U31C C76U G83A C125G, which “polymerase ribozyme fitness (log ratio)” value is on record?
Its value is no more than -4.2.

Which “polymerase ribozyme fitness (log ratio)” value does the source give for A22C C57A A106G G141C here?
The value was -0.358.

For A22U G46C A73U, which “polymerase ribozyme fitness (log ratio)” value is on record?
The value was -3.61.

With A24C A29C A37U G59A U61G C87A C103G G117U as the variant, how does the “polymerase ribozyme fitness (log ratio)” value read?
The value was no more than -4.2.

Which “polymerase ribozyme fitness (log ratio)” value does the source give for A23C C38U A39U A41C U145G here?
The value was no more than -4.2.

For A23U G81U C85G G143U, which “polymerase ribozyme fitness (log ratio)” value is on record?
The value was no more than -4.2.

Which “polymerase ribozyme fitness (log ratio)” value does the source give for A23G C93G here?
The value was no more than -4.2.

For A23U U77A A110U, which “polymerase ribozyme fitness (log ratio)” value is on record?
The value was no more than -4.2.

With A23U A26U as the variant, how does the “polymerase ribozyme fitness (log ratio)” value read?
The value was no more than -4.2.

For A22G A52U C85U U109G, which “polymerase ribozyme fitness (log ratio)” value is on record?
The value was -3.97.

For A22U A29C G50A U56A G84A C95G, which “polymerase ribozyme fitness (log ratio)” value is on record?
Its value is no more than -4.2.

With A23U A40G U77A G84A U146G as the variant, how does the “polymerase ribozyme fitness (log ratio)” value read?
The value was no more than -4.2.

Which “polymerase ribozyme fitness (log ratio)” value does the source give for A23U G81U G86U U127G G141U U145A here?
Its value is no more than -4.2.

With A23U U55A C57U G68U A73G G80C G94U U104C as the variant, how does the “polymerase ribozyme fitness (log ratio)” value read?
Its value is no more than -4.2.

Which “polymerase ribozyme fitness (log ratio)” value does the source give for A22U C27G A73C C96U U145G here?
Its value is no more than -4.2.

With A23C U53G U78C G92A G100U A107U G133C G140U as the variant, how does the “polymerase ribozyme fitness (log ratio)” value read?
The value was no more than -4.2.

For A23G U33G G100C U148C, which “polymerase ribozyme fitness (log ratio)” value is on record?
Its value is no more than -4.2.

For A23C A24C U61G A110U, which “polymerase ribozyme fitness (log ratio)” value is on record?
Its value is no more than -4.2.

With A22G A40C U139G as the variant, how does the “polymerase ribozyme fitness (log ratio)” value read?
Its value is 0.649.

Which “polymerase ribozyme fitness (log ratio)” value does the source give for A22U U55A C85G here?
Its value is -2.29.

With A23U C76G as the variant, how does the “polymerase ribozyme fitness (log ratio)” value read?
The value was no more than -4.2.

With A24C A37G C87G C95G A138U as the variant, how does the “polymerase ribozyme fitness (log ratio)” value read?
Its value is no more than -4.2.

For A23C U31A C85G, which “polymerase ribozyme fitness (log ratio)” value is on record?
Its value is no more than -4.2.

Which “polymerase ribozyme fitness (log ratio)” value does the source give for A24C A98U here?
Its value is no more than -4.2.

Which “polymerase ribozyme fitness (log ratio)” value does the source give for A23U U44A C93U here?
Its value is no more than -4.2.

Which “polymerase ribozyme fitness (log ratio)” value does the source give for A23U C54G U56C C57U C69U G94A U130C here?
Its value is no more than -4.2.

Which “polymerase ribozyme fitness (log ratio)” value does the source give for A23C G50U A91C C95G C105G C108U here?
Its value is no more than -4.2.

With A22U A39U A41G A52C G83U G94A G152C as the variant, how does the “polymerase ribozyme fitness (log ratio)” value read?
Its value is -4.02.

For A22U G59A A66U G86A A120G A138G, which “polymerase ribozyme fitness (log ratio)” value is on record?
The value was no more than -4.2.

For A23C G84U C85A C93G G124A, which “polymerase ribozyme fitness (log ratio)” value is on record?
Its value is no more than -4.2.

Which “polymerase ribozyme fitness (log ratio)” value does the source give for A24C A26C G92A U102G here?
Its value is no more than -4.2.

Which “polymerase ribozyme fitness (log ratio)” value does the source give for A23U A66C G71C G84U here?
Its value is no more than -4.2.

For A22U A47U U53G U55A C57U G68A G86C C99U A138C U148G, which “polymerase ribozyme fitness (log ratio)” value is on record?
The value was no more than -4.2.

Which “polymerase ribozyme fitness (log ratio)” value does the source give for A23C U44A U45A U61A G84A A106C C129U U134G here?
Its value is no more than -4.2.

For A23C A24C G58A U90G A91G A138G, which “polymerase ribozyme fitness (log ratio)” value is on record?
Its value is no more than -4.2.

For A22G U45A C87G C93G U102C A119G A121G G133U G143C U151G G152A, which “polymerase ribozyme fitness (log ratio)” value is on record?
Its value is no more than -4.2.

Which “polymerase ribozyme fitness (log ratio)” value does the source give for A23U C35A A41C U55G G86C C95G C105A here?
Its value is no more than -4.2.

For A22U C96G, which “polymerase ribozyme fitness (log ratio)” value is on record?
Its value is -0.148.

Which “polymerase ribozyme fitness (log ratio)” value does the source give for A22U U45A C54U A64C U101G here?
Its value is no more than -4.2.

For A22C G46A A47C C79A G88A C118G A142G, which “polymerase ribozyme fitness (log ratio)” value is on record?
The value was no more than -4.2.

With A23U C38U as the variant, how does the “polymerase ribozyme fitness (log ratio)” value read?
The value was -4.06.

For A22U G46A U55A C75A C85A U90A C103G C114G G128A, which “polymerase ribozyme fitness (log ratio)” value is on record?
The value was no more than -4.2.

With A22C C38U A52U G92A U104C C116G G124A as the variant, how does the “polymerase ribozyme fitness (log ratio)” value read?
Its value is no more than -4.2.

With A23C G46C A47G G84U C87A C93U U109G as the variant, how does the “polymerase ribozyme fitness (log ratio)” value read?
Its value is no more than -4.2.

With A23U C96U as the variant, how does the “polymerase ribozyme fitness (log ratio)” value read?
Its value is -4.1.

For A22C C43U G68A G80C G88U G92C G124U, which “polymerase ribozyme fitness (log ratio)” value is on record?
Its value is no more than -4.2.

For A23U C27G A40G A47U G67A G83U G84A, which “polymerase ribozyme fitness (log ratio)” value is on record?
The value was no more than -4.2.

With A22U G42A U55A C85U G124C as the variant, how does the “polymerase ribozyme fitness (log ratio)” value read?
The value was no more than -4.2.

Which “polymerase ribozyme fitness (log ratio)” value does the source give for A23U A64C G67A G81C here?
The value was no more than -4.2.

For A22U C69U C93A U102G C103G, which “polymerase ribozyme fitness (log ratio)” value is on record?
The value was no more than -4.2.
